In all, about 390,000 compounds went through this assay and about 4,700 (1.2%) were called active. This list was built around the results that the source calls inconclusive (neither active nor inactive); the mix of calls is not that of the screen. Calls follow the shape of the dose curve; as a rule, active = well fitted inhibition curve with a large enough effect; inconclusive = small, poorly fitted or top-dose-only effect, or another doubt; inactive = no such curve, though single readings can be large or run the other way. Potencies of inconclusive entries are doubtful fits and often do not repeat.
Target: DNA polymerase eta (Homo sapiens) (UniProt Q9Y253)
Assay: qHTS for Inhibitors of Polymerase Eta
Details: recombinant Pol eta, fluorescent DNA replication assay; series mostly up to 114 µM; activity change, negative = inhibition: at the top concentration
Outline: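 Fluorescent replication assay: 50 nM final substrate added after a 15 min room-temperature compound preincubation with 10 nM enzyme. Signal taken at 0 min and again at 10 min.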
% is scaled to controls: 0 for no effect and ±100 for the full control effect; potency is read from the fitted curve at half-maximal effect; tags tell the direction and shape of the fitted curve.

Chain of UniProt Q9Y253 (Q9Y253 whole entry, looked up): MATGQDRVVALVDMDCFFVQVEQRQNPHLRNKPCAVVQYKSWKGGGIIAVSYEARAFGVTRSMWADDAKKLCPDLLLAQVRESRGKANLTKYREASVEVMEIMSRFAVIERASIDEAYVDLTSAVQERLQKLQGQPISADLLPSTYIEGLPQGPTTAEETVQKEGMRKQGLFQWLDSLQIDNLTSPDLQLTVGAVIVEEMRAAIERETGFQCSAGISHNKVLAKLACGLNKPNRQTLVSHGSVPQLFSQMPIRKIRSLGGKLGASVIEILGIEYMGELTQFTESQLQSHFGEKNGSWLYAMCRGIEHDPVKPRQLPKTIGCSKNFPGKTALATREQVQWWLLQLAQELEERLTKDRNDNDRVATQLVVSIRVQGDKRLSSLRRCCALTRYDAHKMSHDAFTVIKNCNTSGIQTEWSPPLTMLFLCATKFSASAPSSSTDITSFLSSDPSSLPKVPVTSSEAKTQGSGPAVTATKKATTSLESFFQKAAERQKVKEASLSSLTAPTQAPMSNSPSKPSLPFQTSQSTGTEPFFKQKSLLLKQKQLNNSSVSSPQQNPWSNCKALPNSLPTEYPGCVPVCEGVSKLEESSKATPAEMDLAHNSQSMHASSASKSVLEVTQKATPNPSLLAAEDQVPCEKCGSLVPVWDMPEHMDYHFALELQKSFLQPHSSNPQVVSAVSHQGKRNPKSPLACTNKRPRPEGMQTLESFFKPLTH

SMILES	Potency	activity change, negative = inhibition
CCOC(=O)c1sc(NC(=S)NC(=O)c2ccccc2)c(C(=O)OCC)c1C	inconclusive: 4.47 µM [inhibitor, partial curve]	
CCOC(=O)c1ccc(S(=O)(=O)N2CC(=O)Nc3ccccc32)cc1	inconclusive: 31.6 µM [inhibitor, partial curve, poor fit]	
CC(C)Oc1ccc(S(=O)(=O)N2CCOCC2)cc1NC(=O)CSC(=S)N1CCCC1		inactive: -17.6%
Cc1cccc(CCNC(=O)C2CCCN(S(=O)(=O)c3ccc4c(c3)oc(=O)n4C)C2)c1 (centres undefined)		inactive: -15.6%
C/C=C\C=C/C(=O)Nc1cccc(C2=NOC3(C2)C[C@@H](C(N)=O)N(C(=O)C2(C)CC2)C3)c1 (some centres undefined)	inconclusive: 22.4 µM [inhibitor, full curve]	
Cc1ccc(Cl)cc1N1CCN(C(=O)CN(c2ccccc2)S(=O)(=O)N(C)C)CC1	active: 50.1 µM	
CCCCCCN1C[C@@H](n2cc(-c3ccc(F)cc3)nn2)[C@H](O)C[C@@H]1c1ccccc1	inconclusive: 79.4 µM [inhibitor, partial curve, poor fit]	
COc1c(-c2ccc(O)c(O)c2)oc2cc(O)cc(O)c2c1=O	active: 8.91 µM	
COc1ccccc1N1CCN(C(=O)COc2ccc(Cl)cc2Br)CC1	inconclusive: 44.7 µM [inhibitor, partial curve, poor fit]	
O=C(Nc1ccc(Cl)cc1)Nc1ccc(N2CCCC2)c(S(=O)(=O)Nc2ccccc2Cl)c1		inactive: -10.1%
Oc1ccc(N=Cc2ccc(OCc3ccccc3)cc2)cc1	active: 22.4 µM	
CCN(c1cccc(C)c1)c1ncnc2c1cnn2-c1cccc(Cl)c1		inactive: -14.4%
COc1ccc(NC(=O)COC(=O)C2CCC(C(C)(C)C)CC2)c([N+](=O)[O-])c1 (centres undefined)	inconclusive: 79.4 µM [inhibitor, partial curve, poor fit]	
O=C(COc1ccccc1)NNC(=O)c1cc2ccccc2o1		inactive: 0.305%
O=C(NNC(=O)C1[C@H]2CCCC[C@@H]12)c1ccc(=O)oc1 (some centres undefined)	inconclusive: 100 µM [inhibitor, partial curve, poor fit]	
COC(=O)CCCNC(=O)c1ccc2nc(Cc3ccc(OC)cc3)oc2c1	inconclusive: 35.5 µM [inhibitor, partial curve, poor fit]	
O=C(c1ccco1)N1CCN(C(=O)c2cc(-c3ccncc3)nc3ccc(Br)cc23)CC1	inconclusive: 39.8 µM [inhibitor, single point]	
CCOc1cccc(C(=O)Nc2nnc(-c3ccco3)s2)c1	inconclusive: 15.8 µM [inhibitor, partial curve]	
O=C(COc1ccccc1)NCC(=O)N/N=C/c1ccccc1		inactive: -19.1%
O=c1c2ccccc2nc2c3ccccc3c(NCc3ccccn3)nn12	inconclusive: 56.2 µM [inhibitor, partial curve, poor fit]	
O=C(O)c1cc(NS(=O)(=O)c2ccc(N3CCOCC3)c([N+](=O)[O-])c2)cc(C(=O)O)c1		inactive: 3.73%
CCN1/C(=C/C=C/c2sc3ccccc3[n+]2CC)Sc2ccccc21	active: 39.8 µM	
CC1CCN(C(=O)COC(=O)c2ccc([N+](=O)[O-])o2)CC1	active: 50.1 µM	

SMILES	Potency	activity change, negative = inhibition
COc1ccc2[nH]cc(S(=O)(=O)c3ccc(C)c(C)c3)c(=O)c2c1		inactive: -1.72%
O=C(OC1CCOC1=O)c1ccc(NS(=O)(=O)c2cccs2)cc1 (centres undefined)	inconclusive: 56.2 µM [inhibitor, partial curve]	
O=C(O)c1ccc(/C=C/c2nc3ccccc3c(=O)[nH]2)cc1		inactive: 2.4%
c1ccc(-c2cc(-c3ccncc3)nc3ccc4ccccc4c23)cc1	inconclusive: 89.1 µM [inhibitor, partial curve, poor fit]	
O=C(c1cc2cc([N+](=O)[O-])ccc2oc1=O)n1cccn1	active: 31.6 µM	
O=C(NCC1CCCO1)/C(=C\c1cccc([N+](=O)[O-])c1)NC(=O)c1ccccc1 (centres undefined)	inconclusive: 89.1 µM [inhibitor, partial curve, poor fit]	
CC(=O)c1ccc2c3c(cccc13)C(=O)N(CCc1ccccc1)C2=O	active: 28.2 µM	
COc1cc(/C=N\Nc2cc(=O)n(C)c(=O)n2C)ccc1O	inconclusive: 28.2 µM [inhibitor, partial curve, poor fit]	
CC[N+]1(C)CCC(O)(/C=C/c2ccccc2)C(C(=O)/C=C/c2ccccc2)C1 (centres undefined)	inconclusive: 25.1 µM [inhibitor, partial curve, poor fit]	
Cc1ccc(O)c(C(=O)c2cnn(C(=O)COc3ccc(Cl)cc3)c2)c1	inconclusive: 8.91 µM [inhibitor, partial curve]	
CC(C)(C)C(=O)N(Cc1ccc(Cl)cc1)Cc1cccnc1	inconclusive: 100 µM [inhibitor, partial curve, poor fit]	
Cc1ccc2nc(CCl)[n+]([O-])c(-c3ccccc3)c2c1		inactive: -9.71%
O=C(O)c1ccc(/C=N/Nc2ccc(S(=O)(=O)N3CCCC3)cc2[N+](=O)[O-])cc1		inactive: 0.0135%
O=C(O)c1cccc(-n2nc(-c3ccc(Cl)c([N+](=O)[O-])c3)c3ccccc3c2=O)c1	inconclusive: 20 µM [inhibitor, partial curve, poor fit]	
COc1ccccc1NC(=O)Cn1nnc(-c2ccccc2NC(=O)c2ccco2)n1	inconclusive: 25.1 µM [inhibitor, partial curve, poor fit]	
COc1cc(NC(=O)COC(=O)c2ccc([N+](=O)[O-])s2)cc(OC)c1OC	active: 50.1 µM	
O=S(=O)(c1ccc(-c2ccon2)s1)N1CCCC1		inactive: -16.4%
O=C(Nc1cc(C(F)(F)F)ccc1N1CCOCC1)c1cccs1	inconclusive: 89.1 µM [inhibitor, partial curve, poor fit]	
CC(C)(C)N(Cc1ccccc1)C(=O)CSc1nnc(CNc2ccc(F)cc2)o1	inconclusive: 20 µM [inhibitor, partial curve, poor fit]	
COc1ccc(/C=C/C(=O)NC(=S)Nc2cc([N+](=O)[O-])ccc2O)cc1OC	active: 25.1 µM	
O=C(Nc1nnc(C2CC2)s1)C1Cc2ccccc2CN1C(=O)c1ccco1 (centres undefined)	inconclusive: 44.7 µM [inhibitor, partial curve]	
Cn1c(SCC(=O)Nc2nc3ccccc3s2)nnc1-c1ccccc1	inconclusive: 14.1 µM [inhibitor, partial curve]	
COC(=O)CNC(=O)CSc1nc2sccc2c(=O)n1-c1ccccc1	inconclusive: 56.2 µM [inhibitor, partial curve, poor fit]	

SMILES	Potency	activity change, negative = inhibition
O=C(O)c1cc(NN=C2c3ccccc3-c3ccccc32)ccc1Cl	active: 22.4 µM	
CN(C)S(=O)(=O)c1cccc(NC(=O)C2Cc3ccccc3CN2C(=O)c2ccco2)c1 (centres undefined)	inconclusive: 56.2 µM [inhibitor, partial curve]	
O=C(/C=C/c1ccco1)NC(=S)Nc1cccc(-c2nc3ccccc3s2)c1	inconclusive: 15.8 µM [inhibitor, partial curve, poor fit]	
COCC1CCN(C(=O)C2CCC(=O)N(CCc3ccc(Cl)cc3)C2)CC1 (centres undefined)		inactive: -12.1%
CC(/C=C/C1(O)C(C)CC(O)CC1(C)C)OC1OC(CO)C(O)C(O)C1O (centres undefined)	active: 35.5 µM	
COc1ccc(NC(=O)c2ccco2)cc1NC(=O)COc1ccc(Cl)cc1C	active: 79.4 µM	
O=c1c(-c2ccccc2)c(O)c2ccccc2n1-c1ccccc1		inactive: -16%
CO/N=C(\C(=O)N[C@@H]1C(=O)N2C(C(=O)O)=C(COC(N)=O)CS[C@H]12)c1ccco1	active: 2.51 µM	
CCN(CC)CCNc1nc(-c2ccc(OC(F)F)cc2)c(C)s1	inconclusive: 100 µM [inhibitor, single point]	
COc1ccc(C(=O)C2CCCN(C(=O)c3cccc(Cl)c3F)C2)cc1OC (centres undefined)	inconclusive: 50.1 µM [inhibitor, partial curve, poor fit]	
CC1CCN(c2c([N+](=O)[O-])c(=O)n(-c3ccccc3)c3ccccc23)CC1		inactive: 3.27%
O=C1OC(/C(=C\Nc2ccc(F)cc2F)[N+](=O)[O-])c2ccccc21 (centres undefined)	inconclusive: 50.1 µM [inhibitor, partial curve]	
Cc1ccccc1CSCC(=O)NCc1ccco1	inconclusive: 44.7 µM [inhibitor, partial curve]	
COc1ccc(-n2cccc2/C=C2\C(=N)N3N=C(c4ccco4)SC3=NC2=O)cc1	active: 8.91 µM	
CCCCNC(=O)Nc1nnc(-c2ccc(OCC)cc2)o1		inactive: 5.4%
O=Cc1cn(CCC(=O)O)nc1-c1cc2ccccc2o1	active: 20 µM	
Cc1sc2ncnc(NCc3ccco3)c2c1C	inconclusive: 12.6 µM [inhibitor, partial curve, poor fit]	
COc1ccc(OC)c(CNC(=O)Cn2nc(C)c3c(C)n(-c4ccc(C)cc4)nc3c2=O)c1	inconclusive: 56.2 µM [inhibitor, partial curve]	
Cc1nnc2sc(-c3ccc(-c4ccc(Cl)c(C(F)(F)F)c4)o3)nn12	inconclusive: 25.1 µM [inhibitor, partial curve, poor fit]	
Cc1ccccc1NC(=O)c1cc(-c2ccco2)nc2ccccc12	active: 44.7 µM	
Cc1cccc(C)c1NC(=O)CN1C(=O)c2cccc3cccc1c23		inactive: -14.9%
CC(=O)NC1(C(F)(F)F)C(=O)Nc2c1c(=O)[nH]c(=O)n2Cc1ccco1 (centres undefined)	inconclusive: 20 µM [inhibitor, partial curve, poor fit]	
O=C(CC1Sc2ccccc2NC1=O)Nc1cccc(C(=O)O)c1 (centres undefined)	active: 6.31 µM	

Reference: PubChem BioAssay AID588591 (National Center for Advancing Translational Sciences (NCATS), 2011)
